Assay results published in patent publication US7008781 (Regeneron, dated 2006).

Target: Tie-2 receptor in EAhy926 cells (UniProt Q02763 23-1124, limits assumed)
Assay: cell-based or functional assay

UniProt Q02763, sequence (Q02763 23-1124 limits assumed): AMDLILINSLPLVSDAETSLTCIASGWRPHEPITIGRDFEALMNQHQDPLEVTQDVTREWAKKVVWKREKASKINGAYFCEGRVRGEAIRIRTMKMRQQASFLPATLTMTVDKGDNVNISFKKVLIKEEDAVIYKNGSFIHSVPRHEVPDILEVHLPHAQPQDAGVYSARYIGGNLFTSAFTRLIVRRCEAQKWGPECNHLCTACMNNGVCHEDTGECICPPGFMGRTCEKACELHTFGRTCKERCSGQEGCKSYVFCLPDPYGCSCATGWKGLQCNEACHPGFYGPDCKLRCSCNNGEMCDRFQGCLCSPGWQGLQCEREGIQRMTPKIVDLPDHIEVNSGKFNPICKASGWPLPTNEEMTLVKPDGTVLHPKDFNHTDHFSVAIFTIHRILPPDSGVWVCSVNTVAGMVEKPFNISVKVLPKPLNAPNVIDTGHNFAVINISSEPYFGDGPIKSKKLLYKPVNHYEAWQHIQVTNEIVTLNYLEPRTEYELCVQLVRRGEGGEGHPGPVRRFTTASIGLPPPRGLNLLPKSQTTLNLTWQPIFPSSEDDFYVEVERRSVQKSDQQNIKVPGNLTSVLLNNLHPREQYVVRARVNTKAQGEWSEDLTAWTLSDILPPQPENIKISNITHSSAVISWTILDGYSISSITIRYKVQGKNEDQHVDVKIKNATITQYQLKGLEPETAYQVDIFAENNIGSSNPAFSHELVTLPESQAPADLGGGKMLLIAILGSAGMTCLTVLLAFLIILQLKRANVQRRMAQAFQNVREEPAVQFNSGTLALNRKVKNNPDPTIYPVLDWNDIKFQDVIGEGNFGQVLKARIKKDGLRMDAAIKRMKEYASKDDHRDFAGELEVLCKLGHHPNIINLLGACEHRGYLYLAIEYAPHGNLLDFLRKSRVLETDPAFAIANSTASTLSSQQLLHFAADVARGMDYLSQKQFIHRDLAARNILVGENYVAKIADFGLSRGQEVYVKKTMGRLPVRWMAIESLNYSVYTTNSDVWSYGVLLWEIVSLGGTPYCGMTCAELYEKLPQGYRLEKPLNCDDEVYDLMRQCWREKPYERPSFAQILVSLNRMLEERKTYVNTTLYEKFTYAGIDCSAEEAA

block of stable CHO clone-derived Ang-1-FD-Fc-FD-mediated Tie-2 receptor phosphorylation in EAhy926 cells: ≥ 40 fold molar excess of stable CHO clone-derived Ang-1-FD-Fc-FD
B1: stable CHO clone-derived Ang-2-FD-Fc-FD protein (Fc fusion)
chain: DCAEVFKSGHTTNGIYTLTFPNSTEEIKAYCDMEAGGGGWTIIQRREDGSVDFQRTWKEYKVGFGNPSGEYWLGNEFVSQLTNQQRYVLKIHLKDWEGNEAYSLYEHFYLSSEELNYRIHLKGLTGTAGKISSISQPGNDFSTKDGDNDKCICKCSQMLTGGWWFDACGPSNLNGMYYPQRQNTNKFNGIKWYYWKGSGYSLKATTMMIRPADFGGPG[human IgG1 Fc skipped]GGGGSGAPRDCAEVFKSGHTTNGIYTLTFPNSTEEIKAYCDMEAGGGGWTIIQRREDGSVDFQRTWKEYKVGFGNPSGEYWLGNEFVSQLTNQQRYVLKIHLKDWEGNEAYSLYEHFYLSSEELNYRIHLKGLTGTAGKISSISQPGNDFSTKDGDNDKCICKCSQMLTGGWWFDACGPSNLNGMYYPQRQNTNKFNGIKWYYWKGSGYSLKATTMMIRPADF
